Assay results from PubChem BioAssay AID463173 (ICCB-Longwood Screening Facility, Harvard Medical School, 2010).
About 1,700 (3.3%) of roughly 52,000 compounds were called active. Rule as the data show it: active = survival mostly below about 52% (no sharp cut-off); inactive = mostly above about 56%. The list shows a part of the results.

System: Wild type
Assay: S. aureus survival, RN4220 and DeltatarO strains – OD600, teichoic acid synthesis inhibitors, primary screen (AID 463173)
Conditions: S. aureus RN4220 wild type/DeltatarO growth, OD600, 18 h, active compounds read low, screened at 18.75 µg/mL (by protocol)

Compound | survival
Cc1ccc2[nH]c(=O)c(C(c3nnnn3C3CCCC3)N(C)C3CCCCC3)cc2c1 (configuration not stated) | inactive: 130%
CCOc1cc(C2NC(=O)c3c(sc4c3CCN(C)C4)N2)ccc1OC(=O)c1ccc(F)cc1 (configuration not stated) | inactive: 68%
O=C(Nc1ccc(F)cc1F)c1cc(-c2ccc3c(c2)OCO3)on1 | inactive: 85%
Cc1ccc(CCNC(=O)c2ccc(CSc3nc4ccncc4n3Cc3ccc(F)cc3)cc2)cc1 | inactive: 139%
Cc1ccc(-n2nc(CO)c(C(=O)NC(C)c3ccccc3)n2)cc1C (configuration not stated) | inactive: 84%
COC(=O)c1sc2ccccc2c1S(=O)(=O)N1CCN(c2ccc(C(C)=O)cc2)CC1 | inactive: 73%
CCC(C(=O)NCCc1ccc(SC)cc1)n1nc(C)c2c(C)n(-c3ccc(C)cc3)nc2c1=O (configuration not stated) | inactive: 77%
COc1cc(C2CC(=O)N(CC(=O)Nc3ccccc3F)c3ccccc3S2)cc(OC)c1OC (configuration not stated) | inactive: 83%
CC(=O)c1cc(-c2ccc(F)cc2)n(CCC(=O)NC2CCCCC2)c1C | inactive: 95%
Cc1cccc(OCC(=O)Nc2cccc(-c3nc4ccccc4s3)c2)c1 | active: 5%
COC(=O)c1ccccc1NC(=O)CCc1c(C)nc2cc(-c3ccc(Cl)cc3)nn2c1C | inactive: 69%
CC(C)CNc1cc(NC2CCCCC2)c2c3c(onc13)-c1ccccc1C2=O | inactive: 95%
Cc1ccc(Cl)cc1N1CCN(C(=O)c2cn(C)c3ccc(S(=O)(=O)N4CCCCC4)cc3c2=O)CC1 | inactive: 77%
CC1(C)CC2CC(C)(CN2C(=O)Nc2ccccc2)C1 (configuration not stated) | inactive: 102%
COc1cccc(CNCc2c(C(=O)O)c(C)n(Cc3ccc(F)cc3Cl)c2C)c1OC | inactive: 90%
O=C(Nc1ccc(F)c(F)c1)c1ccc(F)c(S(=O)(=O)N2CCC3(CC2)OCCO3)c1 | inactive: 76%
O=C(CC1N=C2c3ccccc3N=C(SCc3cccc(F)c3)N2C1=O)NC1CCCCC1 (configuration not stated) | inactive: 92%
CCSc1nc2sc3c(c2c(=O)n1-c1ccc(C)cc1)CCCC3 | active: 0%
O=C(NC1CCCCC1)C(c1cccs1)N(Cc1ccco1)C(=O)C1COc2ccccc2O1 (configuration not stated) | inactive: 114%
CSc1ccc(CCNC(=O)CCc2c(C)nc3c4cccnc4nn3c2C)cc1 | inactive: 82%
CC(C(=O)O)N1CCCCC1 (configuration not stated) | inactive: 106%
CCn1c(=O)n(CC2CCC(C(=O)NC(C)C)CC2)c(=O)c2sccc21 (configuration not stated) | inactive: 77%

Compound | survival
COc1ccc2cc3c(N)nn(C(=O)c4ccc(F)cc4Cl)c3nc2c1 | inactive: 81%
COc1ccc(NC(=O)CSc2c(C(C)C)cnc3c2c(=O)n(C)c(=O)n3C)c(OC)c1 | inactive: 80%
Cc1cc(NC(=O)CN2CCC(O)CC2)nc2c1c(=O)oc1ccccc12 | inactive: 72%
COc1ccc(C(=O)NCC(c2ccc3c(c2)OCO3)N2CCN(C)CC2)cc1OC (configuration not stated) | inactive: 128%
CCOC(=O)c1cc(CC)sc1NC(=O)COc1ccccc1C | inactive: 119%
CCN1CCN(c2ncnc3c2cnn3-c2ccc(F)cc2)CC1 | inactive: 56%
CCOc1ccc(-n2c(SCC(=O)c3ccccc3)nc3c([nH]c4ccccc43)c2=O)cc1 | inactive: 129%
O=C(Nc1ccc(Cl)cc1)C1COc2ccccc2O1 (configuration not stated) | inactive: 114%
COc1ccc(CC(=O)Nc2ccc(-c3nc4ccccc4s3)c(C)c2)cc1 | inactive: 69%
COc1ccc(NC(=O)c2ccc3oc(=O)c(S(=O)(=O)c4ccc(F)cc4)cc3c2)c(OC)c1 | inactive: 71%
CC(C)c1nc2sc3c(N4CCCCC4)ncnc3c2c2c1CCCC2 | inactive: 71%
COC(=O)c1ccc(CSc2nc3ccncc3n2Cc2ccc(F)cc2)cc1 | inactive: 87%
CC1=CC(C)(C)N(CC(=O)c2ccccc2)c2ccc(C)cc21 | inactive: 109%
COCC(C)Nc1ncnc2c1cnn2-c1cccc(Cl)c1 (configuration not stated) | inactive: 99%
COc1ccc(C(=O)Oc2ccc(C3NC(=O)c4c(sc5c4CCN(C)C5)N3)cc2OC)cc1 (configuration not stated) | inactive: 77%
Cc1ccc(Cl)cc1N1CCN(C(=O)c2cc(S(=O)(=O)N3CCCCC3)cn2C)CC1 | inactive: 82%
CC(=O)c1ccc(NC(=O)COc2ccccc2-c2nc(-c3ccccc3)no2)cc1 | inactive: 89%
COCc1cc(C)nc2sc3c(c12)NC(c1ccccc1C(=O)O)N(c1ccc(OC)cc1)C3=O (configuration not stated) | inactive: 85%
CCOC(=O)c1c(C)[nH]c(C)c1S(=O)(=O)NCC(=O)N1CCN(c2cc(Cl)ccc2C)CC1 | inactive: 123%
O=C(CCSCc1ccccc1Cl)N1CCN(c2ccc(F)cc2)CC1 | inactive: 53%
CC(Oc1ccccc1)C(=O)N1CCN(Cc2cc(=O)n3nc(-c4ccccc4Cl)sc3n2)CC1 (configuration not stated) | inactive: 94%
CCc1ccc(C(=O)c2cn(CC(=O)Nc3ccc4c(c3)OCCO4)c3ccc(C)cc3c2=O)cc1 | inactive: 84%

Compound | survival
O=c1cc(CN2CCN(S(=O)(=O)c3ccccc3)CC2)nc2sc(-c3ccccc3Cl)nn12 | inactive: 71%
O=c1c2c3c(sc2n(Cc2cc(=O)n4ccccc4n2)c(=O)n1-c1ccccc1)CCC3 | inactive: 81%
Cc1ccc(C)c(NC(=O)c2nnn(CC(=O)Nc3cccc(C)c3C)c2N)c1 | inactive: 88%
Cc1ccc(NC(=O)C(Cc2ccccc2)NS(=O)(=O)c2cccs2)cc1Cl (configuration not stated) | inactive: 109%
CCn1c(/N=C/c2ccc(OC)cc2O)nc2ccccc21 | inactive: 106%
O=C(CS(=O)(=O)c1nc(-c2ccc(Cl)cc2)cn1-c1ccccc1)Nc1ccc(F)cc1F | inactive: 63%
COc1ccccc1CNC(=O)CN1C(=O)c2cccnc2Oc2ccccc21 | inactive: 64%
CCC(=O)N(Cc1cc2ccc(C)cc2n2nnnc12)C1CCCCC1 | inactive: 105%
Cc1ccc(-c2noc(CSc3nnc(C)n3-c3ccc(C)cc3)n2)cc1 | inactive: 105%
COc1ccc(OCCSc2nc3ccccc3n2CC(=O)N2CCOCC2)cc1 | inactive: 83%
COc1ccc(NC(=O)CCCc2nnc3n(CCC(C)C)c(=O)c4sccc4n23)cc1Cl | inactive: 83%
CCOc1ccc(CNC(=O)C2CCN(C(=O)c3sccc3-n3cccc3)CC2)cc1 | inactive: 77%
Cc1ccc(-n2c(SCCC(C)C)nc3sc4c(c3c2=O)CC(C)(C)OC4)cc1 | inactive: 76%
CCC(=O)Nc1cc(C(F)(F)F)ccc1N1CCCC1 | inactive: 104%
CC(C)Oc1ccc(C(=O)N2CC(=O)Nc3ccc(F)cc3C2c2ccc(F)cc2)cc1 (configuration not stated) | inactive: 78%
CCOc1ccc(CNC(=O)CN2C(=O)C3CCCCN3c3ccc(C(=O)N4CCCC4)cc32)cc1 (configuration not stated) | inactive: 132%
CC1CCCCN1C(=O)C1CCCN(S(=O)(=O)c2ccccc2)C1 (configuration not stated) | inactive: 103%
COCCNc1ncnc2onc(-c3ccc(F)cc3)c12 | inactive: 78%
COc1ccccc1CNC(=O)c1cc2cc(C)ccc2n1C | inactive: 86%
O=C(Cn1c(C(=O)OCCO)cc2ccccc21)c1ccccc1 | inactive: 117%
O=C(COc1ccccc1)NCC1COc2ccccc2O1 (configuration not stated) | inactive: 95%
CN(C)c1cccc(C(=O)N2CCC(c3ccncc3)CC2)c1 | inactive: 72%

Compound | survival
COc1cc(CNc2ccc3[nH]c(=O)[nH]c3c2)cc(Br)c1OCc1ccc(F)cc1 | inactive: 117%
CCOC(=O)c1c(NC(=O)CSc2nccn2C)sc2c1CCCC2 | inactive: 125%
COc1ccc(Cn2ccc3nc(C)c(C(=O)N4CCN(c5cc(C)ccc5C)CC4)cc3c2=O)cc1 | inactive: 87%
O=C(O)CCc1ccc(-c2cccs2)n1CC(=O)Nc1ccccc1C(F)(F)F | inactive: 105%
O=C(CSc1nc(-c2ccccc2)nc2c1CCCC2)c1ccc(Cl)cc1 | inactive: 73%
CCOc1ccc(CNC(=O)c2cnc3sc(N4CCCCCC4)nn3c2=O)cc1OC | inactive: 89%
Cc1ccc(S(=O)(=O)c2nc(S(=O)(=O)c3ccc(C)cc3)c(NC(C)C)s2)cc1 | inactive: 91%
Cc1ccc(C)c(NC(=O)Cn2c(=O)n(Cc3ccc4c(c3)OCO4)c(=O)c3ccc(C(=O)NC4CCCCC4)cc32)c1 | inactive: 88%
CCc1cccc(C)c1NC(=O)C(CC)n1ncn2c(cc3cc(C)ccc32)c1=O (configuration not stated) | inactive: 93%
CCCN(C(=O)c1sc2nc3n(c(=O)c2c1C)CCCC3)c1ccccc1C | inactive: 80%
Cc1ccc2c(c1)CC(C)N2S(=O)(=O)c1nnc(NC(=O)C(C)C)s1 (configuration not stated) | inactive: 81%
Cc1cccc(NC(=O)C2CCN(S(=O)(=O)c3ccc4c(c3)CCCC(=O)N4)CC2)c1 | inactive: 100%
CCCNC(=O)C1CCC(Cn2c(=O)c3sccc3n(CC(=O)Nc3ccccc3C)c2=O)CC1 (configuration not stated) | inactive: 66%
CC(=O)Nc1ccc(S(=O)(=O)N2CCC(NC(=O)Nc3cccc(F)c3)CC2)cc1 | inactive: 99%
CCOc1ccc(CCNC(=O)c2sc3ncccc3c2-n2c(C)ccc2C)cc1 | inactive: 124%
CCc1noc(-c2ccc(N(C)Cc3ccc(OC)cc3)c([N+](=O)[O-])c2)n1 | inactive: 82%
COC(=O)c1c(NC(=O)c2cc3nc(-c4ccc(Br)cc4)cc(C(F)(F)F)n3n2)sc2c1CCCC2 | inactive: 82%
COc1ccc(OC)c(NC(=O)N2CCC(N3CCN(Cc4ccc(F)cc4)C(=O)C3=O)CC2)c1 | inactive: 72%
CCc1ccc(Nc2cc(C(=O)NCCCN(C)c3ccccc3)c3ccccc3n2)cc1 | inactive: 84%
COc1ccc(-c2cc(C(F)(F)F)nc(SCCC(=O)Nc3cccc(O)c3)n2)cc1 | inactive: 80%
Cc1cc(=O)n(CC(=O)Nc2cccc([N+](=O)[O-])c2)c(-n2nc(C)cc2C)n1 | inactive: 78%
